Results reported in the supplement of paper PMC10126150.
Values marked as one replicate rest on one cluster of the flow cell; about a third of the high ones do not repeat.

Test system: ATP
Assay: switch fluorescence ratio, 500 uM ATP over buffer (Cy3 cluster intensity, sum of 5 cycles each) (fold (ratio)); higher = stronger signal-on switching upon ATP binding; sequences stand for … in TCGTCGGCAGCGTCAGATGTGTATAAGAGACAGTTTTTTTTTTTTTTTTTTTTTTTTT…TC
Conditions: aptamer strand: ATP DNA aptamer (quencher-CACCTGGGGGAGTATTGCGGAGGAAGG + anchor), 100 nM annealed; ATP concentration: 500 uM; one replicate
Summary of the method: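 Exposure to 500 uM ATP lasted 15 min at 22 °C before imaging, and a selection-buffer image was taken beforehand, for Cy3-labelled switching-strand clusters on a modified Illumina MiSeq flow-cell annealed to 100 nM quencher-labelled ATP aptamer. Five buffer/ATP cycles were run with NaOH stripping and re-annealing between them. The fluorescence ratio per cluster is summed target-cycle over summed buffer-cycle Cy3 intensity, averaged per switch-domain sequence. Clusters outside 100-1000 RFU were excluded.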

Sequence	switch fluorescence ratio
AAAAAAAAAG	0.969
CCAAGGACTG	1.09
TCCCAGAACT	0.99
GGAAGAATCT	0.952
AATTCATTAG	0.99
TTCGCTGATG	0.997
CTCCGGGATT	5.95
GAGCAGGACA	1.09
TGTAAGGGGC	0.969
AATTGTATAA	0.997
TATCAGGCAC	0.996
TACCCGGTGT	1.97
TTAGGGCCGT	0.963
GGCAATGGAA	1.02
TAGTGTCGCG	1.01
GGGAACCGGC	1.03
GAGAACGGAC	0.988
GGCTGTGGCT	0.959
TACTCTCGGA	0.955
GGGTACGTGC	1.03
ACTTAGTTCC	1.06
ATCAGAACC	1.03
CGCCTAATCT	1.01
GTCCCGCCTT	1.06
TTCTTACCTC	0.997
CATGAACTAG	1.02

Sequence	switch fluorescence ratio
TGATTATGTA	1.03
TGAACAGTTA	0.985
AAGGCCGCTT	0.993
TGCTCTTCCG	1.16
GGTTTGAGCT	0.965
GCTCAACCCC	1.04
GGGGAAGTA	1.01
TTGTTCGCGA	1.04
GATGCGGACC	1.09
TTTGGTCATC	1
GGCGGGAATA	1.08
TATGGGGTT	1
ACTTGGTCTC	1.01
GCGAGGGTA	0.991
AGCATTTAGC	1.04
AGTTGATAAA	1
TACCATTACG	1.19
TTTTACTTTG	0.991
TGAGCACTT	1.3
AACAGCGGAC	1.27
CTTTTGATCT	0.961
TTGGTAGAG	0.994
GGGTACCAG	0.974
CAGCATACAT	1.17
ATGCATGTC	1.02
TGCCGATGAG	1.04

Sequence	switch fluorescence ratio
TCCGTATAGA	0.99
TTTGGTCATG	1
GGATCTGAGG	1.03
CGACGAGGCA	2.13
CTATCCTGCT	0.986
ATGTCCAATT	1.01
GCAGGGAGTC	1.01
TGAGCTGAAG	1.11
ATCCCGTTGC	1.1
AACGTCCGAA	1.1
ATTAAGATCA	1.01
ATGGCGCGCA	1.07
CTGAGTGCGT	1.01
CGTATGATAC	1.3
AAGGAGCTAG	1.02
CCTGACGTGA	2.27
CTAACATAAA	1.02
GGTTTGATAA	0.998
TGGATAACCG	0.976
CATTAGGAGC	1.04
CTGTGTCCCG	1.01
AAGTTGAGAT	1.01
CTGATGTGGT	0.973
TTGACAGTGT	0.968
CGCTTGTTGC	1.08
GGGGAGTGGA	0.974

Sequence	switch fluorescence ratio
ATCCATACGG	1.08
CGTCGATCAT	1.02
TGGTGAAATA	1.03
ACCACATTGA	1.03
GCGGGTATAC	1.21
ATACATTTCT	1.04
TTCGCAAGTG	1.3
ACTAGCGAAC	1.57
ACTGACTGAT	1.16
GTTTTTCCC	0.954
CTTCCCAAAG	1.31
CCTTGAAGCC	1.17
GGGAAACAGT	1.01
GTTTGATCAT	0.934
TGGAGTTCCT	0.971
TTCGTGGATA	1.04
GGCTCAGACG	0.931
GGCGTAGGAA	1
ATGAGTTC	1.02
ATCTTTTCTG	1.02
GGTTTAATG	0.991
GAGGCGGGAA	0.983
AGGGAGGTTC	1.06
TGCAGGATG	1.01
TACGTAACGG	1.25
GAAACAAGGT	0.997

Sequence	switch fluorescence ratio
CGAGTAATTC	1.79
CGCCCTCGGT	0.998
TCTGTGCATG	1.04
CTAGACATGA	1.01
CATGTACTCG	1.04
ATGCTAAGGG	0.948
CGGTCACCGA	1.01
AAACGGGCCA	0.986
AACGATTGAA	1
GAGTGGCAGC	0.962
GGACCGACAT	1.13
ACATAATGTC	1.08
ATAGAAAGGC	1.04
GACAGGTGTC	1.25
CGATGGGTTA	0.989
GGGACAACAT	0.974
CCTAATATTG	0.993
ATTATACTCT	1.04
TCAATGTAAG	0.95
ATGCACAGCG	0.953
ACCTTTAGTA	0.975
CGGGCTAAGC	0.993
CCGCTTTAGG	1.11
CTGGGCTAGT	1
ATACCAATGG	1.01
AGAATATTCG	0.992

Sequence	switch fluorescence ratio
GGGATGACAA	0.99
ACATGGTCAT	1.01
TTACTATGAC	1.03
GGTTGTTTAT	0.979
TCAGGTTTGC	1
ACCAGCACTC	1.59
AGTGTTGATC	1.03
TAAGATTCCT	1.07
CCATTCGTAG	1
AGCTCGTTCC	1.15
GGTAACACGT	1
AGAACGTGGT	1
TTCTAGTACT	1.01
CTAAGTAAAA	1.02
TATAGGCGGG	1
CGTAGCTGTA	1.11
TCAAGAAGAC	1.16
GGCTAACCTC	1.02
TAGGCTTACG	0.963
TGCAAGTAAC	1.57
CTGACTCAGC	1.88
GAGCTAGCAT	0.951
ATAGTGGTTC	0.943
CGACAGCTTT	1.38
ACTATAGGGC	0.985
TAGATCGTGG	1.26

Sequence	switch fluorescence ratio
AAAAACCTGT	1.05
GAAGGCGGTG	1.03
GCCACACGTA	1.11
GCTTAATATC	1.06
GATCGTGTGC	0.94
CGTTTGCTGT	0.953
ACTTGACCAT	1.08
GTTATCACG	0.958
TCACTAATA	1.04
ACTCTGGAA	1.37
GATTTTGAAG	1.02
TAAAAGGCCA	1.01
ATTCGTAGTA	1.02
CGACACCGAA	1.04
ATTTTAACCG	0.998
ATTACAACTA	1.01
CCCATGGCCT	1.1
ACTCGGTAAC	1.1
CAGTTCAGCC	0.997
CATTAGATTG	1.03
ACCTTGATCA	1.02
TGCAATTCG	1.38
ATTTAAATCG	1.03
TGCATTCCAT	1.03
TTCTGGGCCG	1.03
TGGGTGGTAG	0.975

Sequence	switch fluorescence ratio
TGGACTTTG	1.01
CGCGCATTGT	1.15
TTTTGTGGA	1.01
CATTTGAAAA	1.13
TAGGGAACGG	1.07
AGGCAAGGGT	1.2
AAGTATAAAT	1.02
TATAGCAAAG	1.07
CTAGTTCAAG	0.984
AGGTGCTCTC	1.06
GCCGGGCAA	1.1
AAAGGAAGAC	1.14
GCGTCGTCAC	1.01
GGATTTCTTC	0.973
GAGGTTTTT	1.03
AGTTCTGACC	1.06
ACTTTATTCA	1.1
CTTTGTGGTG	0.95
TAGTTCCGGG	1.03
